Reference: PubChem BioAssay AID1347417 (National Center for Advancing Translational Sciences (NCATS), 2020)
The whole screen tested about 120,000 compounds, of which about 5,300 (4.4%) were called active. The inconclusive results got no clear call from the source; some entries with a clear call stand among them for comparison. The call rests on the fitted dose curve; in most records, active means well fitted inhibition curve with a large enough effect; inconclusive means small, poorly fitted or top-dose-only effect; inactive means no such curve, though single readings can be large or run the other way. Potencies beside an inconclusive call are fits to weak or partial responses and may not hold up.

Experiment: qHTS Primary assay for Inhibitors of Plasmodium falciparum Dd2 growth in vitro; further: nearly all actives have a fitted effect of over 65% in size;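 on activity, negative = inhibition: plate controls were DMSO vehicle for no effect and reference drug for full effect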
Conditions: P. falciparum Dd2 growth, SYBR Green, 72 h; activity, negative = inhibition: at 28.9 µM (top of the series) unless noted; series mostly up to 28.9 µM
Text: Malaria, a parasitic disease spread to humans through the bite of a Plasmodium infected Anopheles mosquito, continues to be a global health burden affecting millions of people, with an estimated 228 million cases and 405,000 deaths in 2018. Concerns about safety and limitations of current antimalarial treatments strongly emphasize the need to develop new therapeutic options. The scarce number of chemotypes and validated drug targets with efficacy against the liver stage, have hindered development of new antimalarials. To address this, a chemoprophylactic drug discovery effort was conducted through a combined phenotypic high-throughput asexual blood stage and liver stage screen, providing a robust foundation to identify liver-stage active lead chemotypes. Compounds were initially screened against Plasmodium falciparum Dd2 strain parasites using a in vitro SYBRGreen-1 based 72 hr proliferation assay to identify novel chemotypes to advance to liver stage assays. NIH/NCATS Early Translation Branch Assay Submitter (PI): Anton Simeonov Ph.D.
Malaria-vivax Assay Protocol: PROTOCOL TABLE (as described by Inglese et al., 2007) SEQUENCE No. (e.g., 1, 2, 3, etc.); […] (e.g., Cells, Incubation, Reagent, etc.); VALUE; DESCRIPTION SEQUENCE, Parameter, Description 1; Reagent; 3 uL complete malaria growth medium, 1536 TC treated Black clear bottom plate 2; Controls; 23 nL positive control artesunate (300 nM final) to column 1; Neutral control DMSO to columns 2-4 3; Compound; 23 nL of compounds in dose response concentration (29 uM to 0.5 nM final) 4; Reagent; 5 uL malaria infected red blood cells (2.5% hematocrit final, 0.3% parasitemia 5; Time; 72 hours at 37C (5% O2, 5% CO2, 90% N2; 95% Rh) 6; Reagent; 2 uL lysis buffer/SYBRGreen-1, 25 sec shake immediately following dispense 7; Time; ~16 hours at 37C (5% O2, 5% CO2, 90% N2; 95% Rh) 8; Detector; EnVision (PerkinElmer) bottom read at 485/14nm excitation and 535/25 nm emission NOTES (numbers refer to sequence above): 1; Complete Malaria Growth Media: 1X RPMI-1640 w/L-glutamine, 5.5g/L Albumax II, 367 uM Hypoxanthine, 25 mM HEPES, 0.25% Sodium Bicarbonate, 35 uM Gentamicin sulfate 2; Controls were added using the Kalypsis Pintool (Wako USA) equipped with 1536 pinhead 3; Compounds were added in a 7-point, titration with a high final concentration of 29 uM by Pintool from seven inter-plate titrations of library plates and two DMSO control plates at the beginning and end (see Yasgar et al., 2008). 4; Red blood cells infected with Plasmodium falciparum Dd2 parasites were used. 6; Lysis buffer: 20 mM Tris-HCl, 10 mM EDTA, 0.16% Saponin, 1.6% Triton-X, 10X SYBR Green. REFERENCE: Inglese J, Shamu CE, Guy RK. 2007. Reporting data from high-throughput screening of small-molecule libraries. Nat Chem Biol. doi:10.1038/nchembio0807-438 Yasgar A, Shinn P, Jadhav A, Auld D, Michael S, Zheng W, Austin CP, Inglese J, Simeonov A. 2008. Compound Management for Quantitative High-Throughput Screening. J Lab Autom 13:79-89. doi:10.1016/j.jala.2007.12.004
Potency means the concentration at half of the fitted maximal effect; tags describe the fitted curve by direction and shape.

Structure (SMILES)	Potency	activity, negative = inhibition
CCOC(=O)C1(Cc2ccccc2)CCNCC1	active: 5.62 µM	–
Cc1cc(F)ccc1NC(=O)CCC1CCCN(Cc2cn[nH]c2-c2cccc(F)c2)C1 (stereo not drawn)	inconclusive: 10 µM [inhibitor, single point]	–
CN(CC1CCOC1)C(=O)Nc1ccccc1F (stereo not drawn)	–	inactive: 14.4% [at 5.79 µM]
COCCn1c(C)cc(C(=O)N2CC(COC)C3(CCNCC3)C2)c1C (stereo not drawn)	inactive	–
O=C(c1cccc(Cl)c1)N1CCN(CCc2ccncc2)CC1	inconclusive: 8.91 µM [inhibitor, partial curve]	–
C=CCNC(=O)[C@@H]1Cc2cn(Cc3c(C)noc3C)c3cccc(c23)[C@H](CC(C)C)N1	inconclusive: 6.31 µM [inhibitor, partial curve]	–
O=C(Nc1cccc(OCc2cc(=O)n3c4c(sc3n2)CCCC4)c1)c1ccc(F)cc1	inactive	–
COc1ccc2[nH]c3c(c2c1)CCNC31CCN(C(=O)c2cnccn2)CC1	inconclusive: 3.98 µM [inhibitor, single point]	–
Cc1ccc2c(c1)nc1n2[C@@H](CNCc2cnn(C)c2)COC1	inactive	–
O=C1CC(c2ccccc2)N(C(=O)COc2ccc(F)cc2)CCCCCCN1 (stereo not drawn)	inactive	–
Cc1ccc2nc(-c3cc(NC(=O)/C=C/c4ccccc4)ccc3Cl)oc2c1	active: 11.2 µM	–
CCCCN(CC)CCCNC(=O)c1nn(C)c2c1CS(=O)(=O)c1ccccc1-2	inconclusive: 17.8 µM [inhibitor, single point]	–
Cc1ccc(C)c(NC(=O)Cn2cc(C(=O)c3ccco3)c3ccccc32)c1	inconclusive: 17.8 µM [inhibitor, single point]	–
O=C(N1[C@H]2CC[C@@H]1c1cnc(-c3ccc(F)cc3)nc1C2)C1(c2ccccc2)CC1	inconclusive: 8.91 µM [inhibitor, partial curve]	–
CCOC(=O)C1CCCN(c2cc(C)nc3c(-c4ccccc4OC)c(C)nn23)C1 (stereo not drawn)	inconclusive: 12.6 µM [inhibitor, single point]	–
Cc1c(C)n(C)c2ccc(C(=O)NCCCN3CCCCC3C)cc12 (stereo not drawn)	inconclusive: 17.8 µM [inhibitor, single point]	–
COc1ccccc1-c1nc2c(c(SCC(=O)Nc3ccc(C)c(C)c3)n1)Cc1c(CO)cnc(C)c1O2	inconclusive: 8.91 µM [inhibitor, single point]	–
O=C(NC1CCCCCC1)C1CCN(c2cn[nH]c(=O)c2)C1 (stereo not drawn)	inactive	–
COc1ccc(C2=C(C)C(=NCCCN3CCN(c4cc(C)ccc4C)CC3)NS2(=O)=O)cc1	inconclusive: 11.2 µM [inhibitor, single point]	–
Cc1ccc(NC(=O)c2cccc3c2C(=O)N(C2CCCCC2)C3)c(C)c1	inconclusive: 17.8 µM [inhibitor, single point]	–
COc1cccc(N2C(=O)NC(=NC3CCCCC3)C23CCCN(Cc2ccsc2)C3)c1 (stereo not drawn)	active: 11.2 µM	–
Cc1nc(-c2cn(C3CCCN(C(=O)c4ccccc4)C3)nn2)no1 (stereo not drawn)	inactive	–
COC(=O)CC1CCN(C(=O)C2CC(=O)N(c3n[nH]c4cccc(F)c34)C2)CC1 (stereo not drawn)	inactive	–

Structure (SMILES)	Potency	activity, negative = inhibition
COc1ccc(C(=O)N2CC(Oc3ccc4c(c3)OCO4)C2)cc1	inactive	–
COc1ccc2[nH]cc(CCNC(=O)c3ccc4c(c3)C(O)CCCCCN4C)c2c1 (stereo not drawn)	inconclusive: 17.8 µM [inhibitor, single point]	–
Cc1cnc(C(=O)N2CCCC2c2nc(CCOc3ccc(F)cc3)no2)cn1 (stereo not drawn)	inconclusive: 10 µM [inhibitor, single point]	–
CSc1cccc(NC(=O)Nc2cccc(-c3ccc(N4CCOCC4)nn3)c2)c1	inconclusive: 17.8 µM [inhibitor, single point]	–
CCOC(=O)c1ccc(N2C(=O)c3n[nH]c(-c4ccco4)c3C2c2ccc(O)cc2)cc1 (stereo not drawn)	inconclusive: 11.2 µM [inhibitor, partial curve, poor fit]	–
CCCn1cc(S(=O)(=O)c2ccccc2)c(=O)c2cc(F)c(N3CCCC(C)C3)cc21 (stereo not drawn)	inconclusive: 10 µM [inhibitor, partial curve, poor fit]	–
COc1ccc(C)cc1NC(=O)c1c(C)oc2ncn(CC(C)C)c(=O)c12	inactive	–
COc1ccc(C)c2sc(N(Cc3cccnc3)C(=O)C3CCCCC3)nc12	inconclusive: 10 µM [inhibitor, single point]	–
O=C(c1cc2ccccc2[nH]1)N1CCCC(c2nc(CCOCC3CC3)no2)C1 (stereo not drawn)	inconclusive: 10 µM [inhibitor, single point]	–
CC(=O)N1CCN(C[C@@H]2C=C(C)[C@H](Cc3nnc(-c4ccncc4)o3)C[C@H]2C(C)C)CC1	active: 11.2 µM	–
COc1ccccc1OCCNC(=O)C1CCCN(c2cn[nH]c(=O)c2)C1 (stereo not drawn)	inactive	–
COc1ccc(Cl)cc1-c1ccc2c(c1)C(=O)N1CC[C@H](N)[C@H]1C(=O)N2	inconclusive: 22.4 µM [inhibitor, single point]	–
Cc1ccc(CN2CCCCCNC(=O)[C@@H]3CCC[C@@H]32)o1	inconclusive: 17.8 µM [inhibitor, single point]	–
O=C(N[C@H]1CCN2C(=O)c3cc(-c4cccs4)ccc3NC(=O)[C@H]12)c1cnccn1	inconclusive: 31.6 µM [inhibitor, single point]	–
Fc1cccc(-c2cnc([C@@H]3COCCN3Cc3ccccc3)[nH]2)c1	inconclusive: 2.82 µM [inhibitor, full curve]	–
CCC1CN(S(=O)(=O)c2cc(-c3cc(C)no3)ccc2C)c2cc(C)ccc2O1 (stereo not drawn)	inconclusive: 10 µM [inhibitor, single point]	–
CN1CCC2(C1)CN(CC1CCOCC1)c1ccc(C(=O)Nc3ccccc3)cc12 (stereo not drawn)	inconclusive: 17.8 µM [inhibitor, partial curve, poor fit]	–
COc1ccc(C(=O)N2CC(C(=O)N(C)C)C3(CCOCC3)C2)cc1 (stereo not drawn)	inactive	–
Cc1ccc(C(=O)COc2cccn3c(=O)c(-c4cc(C)n(-c5ccccc5)n4)c(C)nc23)cc1	inconclusive: 2.24 µM [inhibitor, partial curve]	–
CC1=Nc2cc(C(=O)NCc3ccccc3Cl)ccc2Sc2c(C)ccc(C)c21	inconclusive: 12.6 µM [inhibitor, single point]	–
O[C@@H]1C[C@@H](c2nnc3n2CCN(CC2CCCCC2)C3)N(Cc2ccccc2)C1	inconclusive: 10 µM [inhibitor, single point]	–
O=C(CCC1CCCC1)N1CCCCCC1CN1CCOCC1 (stereo not drawn)	inactive	–
Cc1cccc(OCC(=O)N2CCC3(CC2)CN(c2ccncn2)CC3CO)c1 (stereo not drawn)	inconclusive: 8.91 µM [inhibitor, partial curve]	–

Structure (SMILES)	Potency	activity, negative = inhibition
Cc1ncsc1CN1CCC2(CC1)NCCc1c2[nH]c2ccccc12	inconclusive: 6.31 µM [inhibitor, partial curve, poor fit]	–
COc1ccc(CCNC(=O)c2cc3cn(C(C)C)cc3s2)cc1OC	active: 8.91 µM	–
COC(=O)C(=O)N[C@H]1C[C@@H](Cc2cc(CC(C)C)on2)C1(C)C	inactive	–
O=C(CN1C(=O)C(c2ccc(F)cc2)=NC12CCCCCC2)Nc1ccccc1Cl	inconclusive: 10 µM [inhibitor, single point]	–
Cc1cccc(OCCc2noc(C3CCCCN3Cc3cccnc3)n2)c1 (stereo not drawn)	inconclusive: 3.98 µM [inhibitor, single point]	–
Cc1ccccc1-n1nc(C)c(CCC(=O)NC2CC2)c1Oc1ccccc1	inactive	–
Cc1nc2cccnc2n1-c1cccc(C(=O)N2CCN(c3cccc(Cl)c3)CC2)c1	inconclusive: 11.2 µM [inhibitor, partial curve, poor fit]	–
COc1ccc(-c2nnc(SCC(=O)NCCc3ccc(OC)c(OC)c3)nc2-c2ccc(OC)cc2)cc1	inconclusive: 17.8 µM [inhibitor, single point]	–
CCN1C(=O)Cc2cc(C(=O)NCc3ccc(F)cc3)ccc21	inactive	–
CC(C)CNc1ccc2c(n1)C(C)(C(=O)NCc1cccnc1)CN(Cc1ccccc1)C2 (stereo not drawn)	inconclusive: 0.501 µM [inhibitor, partial curve, poor fit]	–
Cc1ccc(C)c(N2CCN(S(=O)(=O)c3cc(-c4cc(C)no4)ccc3C)CC2)c1	inconclusive: 17.8 µM [inhibitor, single point]	–
O=C1NCc2ccccc2CC12CCCN(Cc1cc(F)ccc1O)C2 (stereo not drawn)	active: 8.91 µM	–
COc1ccccc1CN1CCC(N2CCCCCC2=O)CC1	inconclusive: 10 µM [inhibitor, single point]	–
COc1ccc(C2(C(=O)N3CCc4ccccc4C3)CCOCC2)cc1	inactive	–
CCOC(=O)c1sc2ncn(CC(=O)Nc3ccc(OCC)cc3)c(=O)c2c1C	inconclusive: 7.08 µM [inhibitor, partial curve, poor fit]	–
Cc1ncsc1CCC(=O)N1CCC2(CCNCC2)CC1	inactive	–
CC1=C[C@@H](CN2CCC(CO)CC2)[C@H](C(C)C)C[C@H]1Cc1nnc(-c2ccncc2)o1	inconclusive: 4.47 µM [inhibitor, full curve, poor fit]	–
Cc1noc(C)c1Cc1ccc(C(=O)NC2CCc3nnc(C)n3CC2)o1 (stereo not drawn)	inactive	–
O=C(Cc1ccsc1)N1CCOc2ccc(CN3CCc4ccccc4C3)cc2C1	inconclusive: 3.98 µM [inhibitor, single point]	–
CN1C(=O)CO[C@H](c2ccc(NC(=O)c3ccc(-c4ccccc4)cc3)cc2)[C@H]1CO	inactive	–
O=C(NCc1cccnc1)C1c2ccccc2C(=O)N(C2CCCC2)C12CCCCC2 (stereo not drawn)	inactive	–
CCOCC1(c2nc3c([nH]2)CCCNC3=O)CCC1	inactive	–
